About 540 (0.36%) of roughly 150,000 compounds showed an effect of 50% or more. The list shows a part of the results.

The subject of the experiment is Plasmodium falciparum. The experiment in a line: Primary screen in NF54 nanoGlo assay, in single point, at 2uM, 72h; a lower Z score goes with more inhibition. The format is functional, Erythrocyte. Particulars: timepoint 72 hour.
In the case of `Cc1ccc(-c2coc(-c3cccc(NC(=O)c4ccc(C(C)(C)C)cc4)c3)n2)cc1`, the % Inhibition (usually the relative decrease from the control value, in per cent) is given as 2% and the Z score is recorded as -0.28.
As to `O=C(Nc1ccc2c(c1)OCCCO2)c1ccc(S(=O)(=O)N2CCCCCC2)cc1`, the “% Inhibition” value is reported as -18% and the Z score stood at 3.46.
The matching figures for `COc1ccccc1C1=NS(=O)(=O)N(C)C(C(=O)N2CCCCC2)=C1`: -1% and 0.13.
`CN(Cc1ccc(F)cc1)C(=O)CN(C)C1CC[S+]([O-])CC1` (stereo not given): the “% Inhibition” value is given as -12% and the Z score came to 1.2.
Take `Cc1cccc2[nH]c([C@@H]3CCCN3C(=O)Cn3nnnc3N)nc12`: the “% Inhibition” value is given as -2% and the Z score came out at 0.32.
With `COc1nc(NC[C@@H](C(C)C)N(C)C)ncc1F`, the “% Inhibition” value is -8% and the Z score came to 1.57.
Turning to `CCCCCc1nnc(NC(=O)Cn2ncc(=O)c3ccccc32)s1`, the “% Inhibition” value was 11% and the Z score was -2.16.
The matching figures for `Cc1nc(NC(=O)Cn2nnc3ccccc32)ccc1Br`: 4% and -0.81.
In the case of `Cc1cnccc1CNC(=O)c1ccnn1C`, the “% Inhibition” value is recorded as -9% and the Z score worked out at 0.93.
Take `CCOc1ccc([C@H]2CC(=O)Nc3snc(C)c32)cn1`: the “% Inhibition” value is recorded as -8% and the Z score worked out at 1.26.
For the molecule `Cc1cc(C(=O)N2CCCCC2)c2c(=O)n(CC(=O)NC(C)(C)C)c(=O)n(-c3ccccc3)c2n1`, the “% Inhibition” value is -7% and the Z score was 1.26.
With `N[C@H]1CCN(C2CCN(c3ccc(Cl)cc3)CC2)C1`, the “% Inhibition” value is 5% and the Z score is -0.51.
On the same counts, the results for `COCCO[C@H]1CCN(C(=O)c2nccc3ccccc23)C1` are -10% and 1.13.
On to `Cc1nn(C)cc1-c1nnc(-c2noc3c2C[C@@H](C)CC3)o1`, for which the “% Inhibition” value amounted to 3% and the Z score is -0.41.
The matching figures for `O=C(c1ccc(O)nc1)N1CCN(S(=O)(=O)c2ccc3ccccc3c2)CC1`: -9% and 1.19.
On the same counts, the results for `COC(=O)n1c(=S)oc2cc(Cl)ccc21` are 1% and -0.15.
For `COc1ccccc1C(=O)Nc1sccc1-c1nc(C2CC2)no1`, the “% Inhibition” value is on record as -2% and the Z score came out at 0.22.
The matching figures for `Cc1cnc(-n2ncc(C(=O)N3CCC(CO)CC3)c2C2CC2)nc1-c1cccs1`: -20% and 2.27.
On the same counts, the results for `COc1ccccc1COc1cccc(NC(=O)N[C@@H]2COC(C)(C)C2)c1C` are -1% and 0.08.
The matching figures for `O=C(CC1CC2CCC1C2)N1CCC(C(=O)N2CCCCCC2)CC1` (stereo not given): -6% and 1.15.
Consider `CN(Cc1cscn1)C(=O)Nc1cc(C(F)(F)F)c[nH]c1=O`, for which the “% Inhibition” value was found to be 2% and the Z score was -0.29.
On the same counts, the results for `CN1C[C@@H](COc2cccnc2)N(C(=O)c2ccccc2)[C@@H](Cc2ccccc2)C1=O` are 2% and -0.24.
The matching figures for `Cn1nc2n(c1=O)CCN(C(=O)NC1CCCCC1)CC2`: -17% and 2.2.
On the same counts, the results for `COc1cccc(-c2cc(C(F)(F)F)n3nc(C(=O)Nc4cnn(CC(=O)NCc5ccco5)c4)cc3n2)c1` are 16% and -1.82.
As for `Cc1nc(C)c(CCNC(=O)N2CCC[C@@H]2Cn2ccnc2)s1`, the “% Inhibition” value is -1% and the Z score is recorded as 0.21.
`COCC(=O)NC1CCN(Cc2cnn(-c3ccccc3)n2)CC1`: the “% Inhibition” value was -7% and the Z score is 0.98.
As to `O=C(Nc1ccc(Cl)cn1)NC1CCCCC1`, the “% Inhibition” value was -15% and the Z score is 1.25.
Consider `COC(=O)c1ncccc1OCc1ncc(Cl)cc1Cl`, for which the “% Inhibition” value is on record as -11% and the Z score stood at 1.21.
The matching figures for `CCCc1ccc(CC(C)CN2CCOC(c3nnc(C)o3)C2)cc1` (stereo not given): -7% and 1.39.
The matching figures for `O=C(NCc1ccncc1)C1CC=CCC1c1nc2ccccc2s1` (stereo not given): -7% and 0.87.
The matching figures for `CCCCOCC(=O)NCc1ccc(C(=O)N(C)C)o1`: -2% and 0.32.
Regarding `O=C(CCc1cc2n(n1)CCN(Cc1ccsc1)C2)N1CCCC1`, the “% Inhibition” value is given as -11% and the Z score was 1.45.
As to `O=C(NCCO)Nc1ccc(Br)cc1OC(F)(F)F`, the “% Inhibition” value is on record as -13% and the Z score was found to be 1.34.
In the case of `Cc1cc(C)cc(-n2nc(CC(N)=O)nc2-c2ncoc2C)c1`, the “% Inhibition” value was -19% and the Z score came out at 2.94.
With `Cc1nn(C)c(C)c1CCOC(=O)c1ccc(N2CCCC2)nc1`, the “% Inhibition” value is recorded as -2% and the Z score came out at 0.16.
On the same counts, the results for `CO[C@H]1CCN(C(=O)c2ccc3c(c2)OCC(=O)N3)C1` are 30% and -3.43.
The matching figures for `c1ccc(Cn2ncc3[nH]c(-c4ccccc4OCCN4CCOCC4)nc32)cc1`: -5% and 0.67.
`CCc1nc(N(CCC(=O)NC(C)C)Cc2ccco2)c2cc(Cl)cc(Cl)c2n1`: the “% Inhibition” value was -6% and the Z score is given as 0.89.
For the molecule `Fc1ccc(OCCn2ccnn2)c(Cl)c1`, the “% Inhibition” value is -4% and the Z score is 0.44.
Consider `Cc1csc(-c2cnc(C)n(C)c2=O)n1`, for which the “% Inhibition” value worked out at 12% and the Z score was -1.58.
On the same counts, the results for `CCc1cc(NCc2cc3c(nc2OC)CN(C2CCCC2)C3=O)ncn1` are -2% and 0.33.
The matching figures for `O=C(CCS(=O)(=O)c1ccc(Cl)cc1)NCCc1ccc(Cl)cc1`: 17% and -2.03.
The matching figures for `CN(C)c1ccc(-c2noc(CCNC(=O)c3ccco3)n2)cc1`: -3% and 0.53.
Regarding `C[C@@H](C(=O)N(Cc1cc(F)ccc1F)C1CCCC1)S(C)(=O)=O`, the “% Inhibition” value is reported as 10% and the Z score is given as -1.42.
On the same counts, the results for `O=C([C@H]1CCCN(c2ncnc3c2nc2n3CCCCC2)C1)N1CCN(c2ccccc2)CC1` are -11% and 1.77.
On the same counts, the results for `CC1(CO)CCN(C(=O)Nc2ccccc2OC[C@H]2CCCCO2)CC1` are -8% and 1.66.
`CC(=O)N1CCC(C(=O)N2CCCO[C@@H](Cn3cccn3)C2)CC1`: the “% Inhibition” value is given as -29% and the Z score is 2.97.
The matching figures for `Cc1ccc(C)c(S(=O)(=O)N(CCCc2ccccc2)CCS(=O)(=O)N2CCNCC2)c1`: -7% and 0.79.
On the same counts, the results for `CCc1cc(CNC2CC3(CCN(C(=O)OC(C)(C)C)CC3)C2)on1` are 16% and -1.99.
The matching figures for `CC(C)c1ccc(Cc2nnc(Nc3cccnc3)[nH]c2=O)cc1`: -7% and 0.85.
For `Cc1nc([C@H](C)NC(=O)Nc2c(-c3ccccc3)cnn2C(C)(C)C)n[nH]1`, the “% Inhibition” value is recorded as -9% and the Z score is on record as 1.03.
With `Cc1ccc(S(=O)(=O)C(C#N)c2nc3ccccc3nc2N2CC(C)CC(C)C2)cc1` (stereo not given), the “% Inhibition” value was -9% and the Z score is 0.82.
On to `Cc1nn(C)c(C)c1CC(=O)Nc1ccc2nscc2c1`, for which the “% Inhibition” value is recorded as 1% and the Z score is reported as -0.16.
The matching figures for `O=c1cc(C2CCN(Cc3cccn3-c3ccc(Cl)cn3)CC2)nc[nH]1`: -2% and 0.22.
On the same counts, the results for `CCOc1ccc(Br)cc1NC(=O)NC[C@H]1CCOC1` are -10% and 0.91.
On the same counts, the results for `CCCC(NC(=O)N1CCC(F)(CO)C1)C1CCCCC1` (stereo not given) are 4% and -0.38.
`CCOc1cccc(C(C)NC(C)C(=O)NC(=O)NC)c1` (stereo not given): the “% Inhibition” value is on record as -1% and the Z score was determined as 0.11.
On the same counts, the results for `COC(=O)N(C)CC(=O)NCc1ccccn1` are -17% and 3.15.
Take `CCn1cc(CNC(=O)N2CC[C@H](CO)C2)cn1`: the “% Inhibition” value was 0% and the Z score is 0.01.
On the same counts, the results for `COc1ccc(CN2C[C@@H](F)[C@@H](OCc3nc4ncccc4[nH]3)C2)cc1` are 30% and -3.38.
The matching figures for `Cc1nc(O)cc(CNC(=O)[C@H](C)n2cc(Cl)cn2)n1`: 0% and 0.04.
On the same counts, the results for `C[C@H]1Cc2cc(S(=O)(=O)N(C)C)cc(Cl)c2O1` are -4% and 0.76.
Regarding `CCN(CCN(C)C)c1cc([C@H]2CCOC2)nc(N2CC(O)C2)n1`, the “% Inhibition” value came to 7% and the Z score is -0.91.
On the same counts, the results for `O=C(Cn1nc2n(c1=O)C(=O)N(c1ccccc1)C2)NCc1ccccn1` are -3% and 0.51.
On the same counts, the results for `Cc1nnsc1CN(C)C(=O)C1=NNC(=O)CC1` are -8% and 1.16.
On the same counts, the results for `Cc1cc(CCC(=O)N2CCNC(=O)C[C@H]2c2ccccc2)no1` are -11% and 1.68.
Turning to `COc1ccc(C)cc1NC(=O)Cn1c(N2CCCCC2)nc(C)cc1=O`, the “% Inhibition” value is recorded as -12% and the Z score turned out to be 1.24.
The matching figures for `O=C(NCCOc1ccccc1)c1ccc(S(=O)(=O)N2CCOCC2)cc1`: -15% and 1.69.
In the case of `COC1CCN(C2CN(C(=O)CNC(=O)OCc3ccccc3)C2)CC1`, the “% Inhibition” value was -11% and the Z score was 1.56.
In the case of `CC(C)C(=O)N1CCC([C@@H]2CN(C(=O)c3ccccc3)C[C@H]2CO)CC1`, the “% Inhibition” value is -18% and the Z score was 2.09.
On the same counts, the results for `CN(C[C@@H]1CCCN2CCCC[C@H]12)C(=O)Cc1c[nH]c2ccccc12` are -1% and 0.06.
The matching figures for `CC(=O)Nc1cc(Cl)c(Cl)cc1F`: -12% and 1.87.
Consider `O=C(NCCCN1CCCC1=O)C(=O)NCc1ccc(F)cc1`, for which the “% Inhibition” value is listed as -10% and the Z score worked out at 1.48.
On the same counts, the results for `Cc1ccccc1[C@H]1CN(C(=O)CCc2c(C)nn(C)c2C)C[C@@H]1C(=O)O` are -21% and 2.21.
The matching figures for `Cc1cccc(NC(=O)CC(=O)NCCN2CCC[C@H](CO)C2)c1`: 18% and -2.33.
On to `CC(C)Cn1nc2n(c1=O)[C@H](C(=O)NCCc1ccncc1)CCCC2`, for which the “% Inhibition” value is recorded as -2% and the Z score came to 0.22.
On to `CN(CCc1ccccc1)[C@H]1CCCN(Cc2ccc(C#CC(C)(C)O)s2)C1`, for which the “% Inhibition” value is -6% and the Z score is 0.75.
On the same counts, the results for `CCC1(CNS(=O)(=O)c2c(C(F)F)c(C)nn2C)CC1` are 2% and -0.3.
The matching figures for `O=C1CCN(CC(=O)N[C@H](c2ccccc2)C2CCCCC2)CCN1`: -9% and 0.95.
The matching figures for `O=C(c1cc(=O)[nH]c2ccccc12)N1CCC(c2nccn2CC2CCC2)CC1`: 3% and -0.49.
Turning to `CN(c1nccc(C(F)(F)F)n1)[C@H]1CCCN(C(=O)CCn2ccnc2)C1`, the “% Inhibition” value is on record as 5% and the Z score is on record as -0.79.
The matching figures for `CC(C)c1ccc([C@H](C)NC(=O)N2CCc3n[nH]cc3C2)cc1`: -10% and 1.3.
On the same counts, the results for `Cc1ccsc1[C@H]1CCN(Cc2ccccc2Cn2cccn2)C[C@@H]1O` are 0% and -0.03.
On the same counts, the results for `Cc1cc(C)nc([C@@H](C#N)C(=O)Nc2ccccc2)n1` are 3% and -0.29.
Regarding `CC(=O)N[C@@H]1C[C@H](Cc2ccccc2)O[C@H](/C=C/c2ccccc2)C1`, the “% Inhibition” value is on record as -2% and the Z score is 0.27.

For the origin of these results see ChEMBL document CHEMBL4888484, “Replenishing the malaria drug discovery pipeline: Screening and hit evaluation of the MMV Hit Generation Library 1 (HGL1) against asexual blood stage Plasmodium falciparum ,using a nano luciferase reporter read-out” (2022).
